Data from the supplement of paper PMC11125491.
± gives the standard deviation of the averaged measurements. Growth of baker's yeast expressing single-residue variants of Pneumocystis jirovecii dihydrofolate reductase in 8.8 or 44 µM methotrexate (about 75% and 90% inhibition of the wild type). Selection coefficient per generation; 0 = like wild type, above 0 = less sensitive, below 0 = more sensitive or loss of function. No active / inactive call per row; the paper calls resistant above 0.220 (8.8 µM) or 0.243 (44 µM) together with a significance test. At 44 µM about 15% of codons end with one read or none, so the lowest values are floors (replicate rank correlation 0.74; 0.94 at 8.8 µM).

B1: UniProt A0EPZ9; numbered along this chain (parent)
chain: MDWQKSLTLIVALTLSRGIGLKNDLPWKLKSDMMFFSRVTSGLLVTRSTGQMNVVLMGRKTWESLPAHSRPLKNRINVVISRQEVLDLGGGAYHARSLDDALALLSQIYDSTSKIQLNRVFVIGGGELCKAAMEHSRLNRIIATVIHNEVDCDVFFPIDFRSSQSCLPWRKQDHSVLEAWVGSKVPQGKINENGFIYEFEMWIRDI

Variants of: B1
Assay: selection coefficient against synonymous wild-type codons (log2 per generation); higher = faster growth than wild type
Conditions: with Saccharomyces cerevisiae carrying the variant on a plasmid
Method: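 Pooled growth of yeast carrying single-residue variants of P. jirovecii dihydrofolate reductase (own DFR1 gene intact), two passages at 30 °C, three cultures, sequenced before and after. Codons with under 15 starting reads are left out; codons of one change are averaged.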

Row | Variant | selection coefficient against synonymous wild-type codons (log2) (methotrexate 8.8 µM) | selection coefficient against synonymous wild-type codons (log2) (methotrexate 44 µM)
1 | G42S | -0.0121 ± 0.037 | -0.035 ± 0.077
2 | G42T | -0.0616 ± 0.094 | -0.0889 ± 0.15
3 | G42V | -0.212 ± 0.043 | -0.0887 ± 0.13
4 | G42W | -0.414 ± 0.19 | -0.0962 ± 0.028
5 | G42Y | -0.155 ± 0.034 | -0.303 ± 0.089
6 | L43A | 0.086 ± 0.065 | 0.0877 ± 0.077
7 | L43C | -0.0395 ± 0.076 | -0.0202 ± 0.083
8 | L43E | 0.314 ± 0.056 | 0.223 ± 0.097
9 | L43F | -0.114 ± 0.039 | -0.201 ± 0.014
10 | L43G | 0.198 ± 0.06 | 0.156 ± 0.11
11 | L43H | 0.12 ± 0.016 | 0.104 ± 0.029
12 | L43I | -0.16 ± 0.052 | -0.143 ± 0.11
13 | L43K | 0.177 ± 0.021 | 0.122 ± 0.12
14 | L43M | -0.0166 ± 0.026 | 0.0179 ± 0.051
15 | L43N | 0.167 ± 0.049 | 0.19 ± 0.051
16 | L43P | 0.23 ± 0.039 | 0.225 ± 0.056
17 | L43Q | 0.157 ± 0.019 | 0.149 ± 0.034
18 | L43R | 0.108 ± 0.053 | 0.0659 ± 0.079
19 | L43S | 0.175 ± 0.036 | 0.152 ± 0.056
20 | L43T | 0.161 ± 0.034 | 0.152 ± 0.034

Row | Variant | selection coefficient against synonymous wild-type codons (log2) (methotrexate 8.8 µM) | selection coefficient against synonymous wild-type codons (log2) (methotrexate 44 µM)
21 | L43V | -0.107 ± 0.083 | -0.103 ± 0.13
22 | L43W | -0.25 ± 0.19 | -0.141 ± 0.038
23 | L43Y | -0.119 ± 0.1 | -0.0938 ± 0.13
24 | L44A | 0.122 ± 0.026 | 0.0524 ± 0.13
25 | L44C | -0.00854 ± 0.045 | 0.249 ± 0.03
26 | L44D | 0.353 ± 0.041 | 0.32 ± 0.046
27 | L44E | 0.298 ± 0.022 | 0.278 ± 0.018
28 | L44F | -0.0855 ± 0.071 | -0.0475 ± 0.046
29 | L44G | 0.179 ± 0.015 | 0.141 ± 0.052
30 | L44H | 0.105 ± 0.032 | 0.00649 ± 0.12
31 | L44I | -0.153 ± 0.097 | -0.0649 ± 0.07
32 | L44K | 0.135 ± 0.0068 | 0.178 ± 0.011
33 | L44M | 0.0321 ± 0.035 | 0.0149 ± 0.039
34 | L44N | 0.241 ± 0.024 | 0.263 ± 0.024
35 | L44P | 0.227 ± 0.028 | 0.206 ± 0.053
36 | L44Q | 0.0678 ± 0.014 | 0.0278 ± 0.042
37 | L44R | 0.025 ± 0.034 | 0.0377 ± 0.079
38 | L44S | 0.133 ± 0.018 | 0.139 ± 0.064
39 | L44T | 0.086 ± 0.022 | 0.109 ± 0.029
40 | L44V | -0.104 ± 0.035 | -0.12 ± 0.14

Row | Variant | selection coefficient against synonymous wild-type codons (log2) (methotrexate 8.8 µM) | selection coefficient against synonymous wild-type codons (log2) (methotrexate 44 µM)
41 | L44W | -0.117 ± 0.022 | -0.163 ± 0.12
42 | L44Y | -0.0991 ± 0.052 | -0.0593 ± 0.12
43 | V45A | 0.101 ± 0.065 | 0.118 ± 0.16
44 | V45C | 0.0459 ± 0.039 | 0.0194 ± 0.075
45 | V45D | 0.305 ± 0.021 | 0.231 ± 0.031
46 | V45E | 0.324 ± 0.059 | 0.342 ± 0.024
47 | V45F | -0.112 ± 0.023 | -0.0573 ± 0.058
48 | V45G | 0.123 ± 0.055 | 0.149 ± 0.053
49 | V45I | -0.0378 ± 0.14 | 0.0414 ± 0.21
50 | V45K | 0.119 ± 0.12 | 0.173 ± 0.078
51 | V45L | -0.0367 ± 0.084 | -0.121 ± 0.14
52 | V45Q | 0.157 ± 0.025 | 0.097 ± 0.035
53 | V45R | 0.0466 ± 0.04 | 0.15 ± 0.087
54 | V45S | 0.139 ± 0.061 | 0.157 ± 0.12
55 | V45T | 0.145 ± 0.061 | 0.0329 ± 0.14
56 | V45W | -0.178 ± 0.17 | -0.0423 ± 0.12
57 | V45Y | -0.161 ± 0.22 | -0.143 ± 0.083
58 | T46A | 0.000668 ± 0.036 | -0.0179 ± 0.088
